“And” between values parts separate entries of the source, which are not always exact repeats. Equal entries are not always repeated. Whole data set: some 5,300 compounds, median “PER2::LUC luminescence relative to vehicle control” near 0.96, cut for the highest 2% near 1.3. This is one part of the list.
System: mPer2Luc MEF
Assay: PER2::LUC luminescence relative to vehicle control (fold of vehicle); higher = higher PER2::LUC reporter signal
Conditions: 10 µM
Summary of the method: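 The reported values are PER2::LUC luminescence as fold of vehicle control in mouse embryonic fibroblasts carrying the mPer2Luc reporter. Cells were seeded at ~3000 per well in 384-well plates in DMEM with 10% FBS at 37 °C and 5% CO2, and compounds were added at 10 μM 48 h later. ONE-Glo luminescence was read 24 h and 30 h after treatment.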

SMILES	PER2::LUC luminescence (time after treatment 24 h)	PER2::LUC luminescence (time after treatment 30 h)
CC1(C)C(=O)N(CCN2CCC(C(=O)c3ccc(F)cc3)CC2)c2ccccc21	1.08	0.683
CCCC(=O)Nc1ccc(OCC(O)CNC(C)C)c(C(C)=O)c1 (stereo not given)	0.797	0.752
COc1ccnc2[nH]cc(C(=O)C(=O)N3CCN(C(=O)c4ccccc4)C[C@H]3C)c12	1.03 and 1.15	0.897 and 1.09
C[C@@H]1O[C@@H](OC[C@H]2O[C@@H](Oc3c(-c4ccc(O)c(O)c4)oc4cc(O)cc(O)c4c3=O)[C@H](O)[C@@H](O)[C@@H]2O)[C@H](O)[C@H](O)[C@H]1O	1.06 and 1.09	1.1 and 1.05
O=C(O)CC1CCC2(CC1)CCN(c1cc(OC(F)(F)F)ccc1Cl)CC2	1.05	0.952
C[N+](C)(C)CCC(=O)c1cccc2ccccc12	0.943	1.05
CCn1cnc(C(=O)NC)c1C(=O)NC	1.03	0.981
CN1[C@@H]2CC[C@H]1C[C@@H](OC(c1ccccc1)c1ccccc1)C2	0.829	0.76
CC(=O)Nc1ccc(OCC(O)CNC(C)C)cc1 (stereo not given)	1.03	0.971
CN(C)C(=O)N[C@H]1CC[C@H](CCN2CCN(c3cccc(Cl)c3Cl)CC2)CC1	1.09	1.07
CO/N=C(\C(=O)N[C@@H]1C(=O)N2C(C(=O)O)=C(CSC(=O)c3ccco3)CS[C@H]12)c1csc(N)n1	0.958 and 0.754	0.911 and 1.05
COc1cc(C)c(Cc2cnc(N)nc2N)cc1OC	0.999	0.932
Cc1c(C)c2c(c(C)c1O)CCC(C)(CCCC(C)CCCC(C)CCCC(C)C)O2 (stereo not given)	0.829	1.01
Cc1cccc(C2CN(C)CCc3c2cc(O)c(O)c3Cl)c1 (stereo not given)	1.03	0.884
CN1CCN(c2ccc(Nc3cc(-c4cccc(-n5ccc6cc(C7CC7)cc(F)c6c5=O)c4CO)cn(C)c3=O)nc2)CC1	0.601	0.569
Cc1nc(N=Nc2cc(S(=O)(=O)O)c3cc([N+](=O)[O-])cc(S(=O)(=O)O)c3c2)c(COP(=O)(O)O)c(C=O)c1O	0.917	1.08
NC[C@H]1O[C@H](O[C@H]2[C@H](O)[C@@H](O[C@H]3O[C@H](CO)[C@@H](O)[C@H](N)[C@H]3O)[C@H](N)C[C@@H]2N)[C@H](N)[C@@H](O)[C@@H]1O	1 and 0.926	0.946 and 0.939
CN(C)C(=O)c1cc2cnc(Nc3ccc(N4CCNCC4)cn3)nc2n1C1CCCC1	0.795 and 0.733	0.895 and 0.779
CC(=O)O[C@]1(C(C)=O)CC[C@H]2[C@@H]3C=C(C)C4=CC(=O)CC[C@]4(C)[C@H]3CC[C@@]21C	0.839	1.09
C=C1[C@H](CO)[C@@H](O)C[C@@H]1n1cnc2c(=O)[nH]c(N)nc21	1.02 and 1.14	1.04 and 1.12
Nc1nnc(-c2cccc(Cl)c2Cl)c(N)n1	1.2	0.907
Cc1cc(Nc2cc(CN3CCOCC3)c3nc(C)c(Cc4ccc(Cl)cc4F)n3n2)n[nH]1	0.51	0.277

SMILES	PER2::LUC luminescence (time after treatment 24 h)	PER2::LUC luminescence (time after treatment 30 h)
CC[C@@]1(O)C(=O)OCc2c1cc1n(c2=O)Cc2cc3c(CN(C)C)c(O)ccc3nc2-1	0.491	0.411
Oc1cc(O)cc(/C=C/c2ccc(O)c(O)c2)c1	1.15	1.09
CC(C)(S)[C@H](N)C(=O)O	1.02	0.948
Nc1nc(=O)[nH]cc1F	1.05	1.06 and 1.16
O=C(O)/C=C(\CC(=O)O)C(=O)O	0.943	0.954
CCN1CCN(c2ccc(Nc3cc(N(C)C(=O)Nc4c(Cl)c(OC)cc(OC)c4Cl)ncn3)cc2)CC1	1.09 and 0.869	0.915 and 0.968
C[C@@H](C[C@H](N)C(=O)O)C(=O)O	1	0.924
OCC(O)C(O)C(O)CO (stereo not given)	0.99 and 0.998	0.963 and 0.951
COc1cc(-c2cc(-c3cccc(O)c3)cnc2N)cc(OC)c1OC	0.125	0.295
O=c1c(-c2ccccc2)c1-c1ccccc1	0.958	1.03
COc1cc2ncnc(Nc3ccc(O)c(Br)c3)c2cc1OC	0.727	0.668
O=C(O)c1ccc(O)c2ncccc12	1.14	1.03
O=C(c1ccc(Cl)cc1Cl)n1nnc2ccccc21	0.879	0.945
COc1cc(O)c(C(=O)c2ccccc2)cc1O	0.627	0.776
O=Cc1ccc2cccc(O)c2n1	1.1	0.962
CCCC(=O)Nc1cccc(NC(=O)c2ccccc2Br)c1	1.22	1.12
C#CC1(O)CC[C@H]2[C@@H]3CCC4=CC(=O)CC[C@@H]4[C@H]3CC[C@@]21CC (stereo not given in full)	0.847	0.942
CN1CC(=O)N=C1NC(=O)Nc1cccc(Cl)c1	0.949	1.1
CC1=C(C(=O)O)N2C(=O)[C@@H](NC(=O)[C@H](N)c3ccccc3)[C@H]2SC1	0.89 and 1.25 and 1.14	1.07 and 0.992 and 1.03
CCCc1c(OCCCOc2ccc(OCC(=O)O)cc2)ccc(C(C)=O)c1O	1.04	0.856
O=C1CC2(CCCC2)CC(=O)N1CCCCNCC1COc2ccccc2O1 (stereo not given)	0.89	0.769
Cc1cccn2c(=O)c(-c3nnn[nH]3)cnc12	1.24	1

SMILES	PER2::LUC luminescence (time after treatment 24 h)	PER2::LUC luminescence (time after treatment 30 h)
CC[C@H](C)C(=O)O[C@H]1C[C@H](O)C=C2C=C[C@H](C)[C@H](CC[C@@H](O)C[C@@H](O)CC(=O)O)[C@H]21	1.15	1.02
CCCn1c(=O)c2[nH]c(-c3ccc(OCC(=O)NCCN)cc3)nc2n(CCC)c1=O	0.998	0.938
C[C@H](CCC(=O)NCCS(=O)(=O)O)[C@H]1CC[C@H]2[C@@H]3[C@H](O)C[C@@H]4C[C@H](O)CC[C@]4(C)[C@H]3C[C@H](O)[C@]12C	1.1 and 0.951	0.767 and 0.904
Nc1ccccc1NC(=O)c1ccc(CNc2nccc(-c3cccnc3)n2)cc1	0.475	0.484
COc1cc(-c2cc(-c3ccc(N4CCNCC4)cc3)cnc2C)cc(OC)c1OC	0.218	0.23
CN(C)CC(=O)OC[C@@H](O)[C@@H](O)[C@H](O)[C@@H](O)C(=O)O	0.98	0.945
O=C(OCCN1CCCCC1)c1c[nH]c2ccccc12	1.02	0.984
CC(C)(C)NCC(O)COc1cccc2c1CC(O)C(O)C2 (stereo not given)	0.823	0.955
Cc1cc(O)cc(O)c1C(=O)O	1.06	1.1
N[C@H](C(=O)O)c1cccc(O)c1	1.07	1.04
CC(C)(C)OC(=O)Nc1ccc(-c2cc(C(=O)NCCCCCCC(=O)NO)no2)cc1	0.385	0.34
CC(=O)N[C@H]1[C@H]([C@H](O)[C@H](O)CO)OC(O)(C(=O)O)C[C@@H]1O (stereo not given in full)	1.03	0.921
COc1ccc2c(c1)OC[C@@H](Cc1ccc(OC)c(OC)c1)[C@@H]2O	0.96	0.933
CC[C@@H]1Cc2cc(O)ccc2C2=C1c1ccc(O)cc1C[C@H]2CC	0.924	0.862
COc1cc2c(cc1Cc1cccc(Cl)c1F)c(=O)c(C(=O)O)cn2[C@H](CO)C(C)C	0.892	0.792
CC(C)Cn1c(=O)n(C)c(=O)c2nc[nH]c21	0.966	0.968
COC(=O)C[C@H]1C(C)(C)C(=O)[C@@H]2CC3C4=CC(=O)O[C@@H](c5ccoc5)[C@]4(C)CC[C@@H]3[C@@]1(C)C2=O (stereo not given in full)	0.871	0.881
Cn1sc(=O)n(Cc2ccccc2)c1=O	0.727	0.578
OCC(S)CS (stereo not given)	1.22	1.08
O=C(c1cccnc1)N1CCOCC1	1.06	1.01
O=c1c2ccccc2[nH]c(=S)n1CCN1CCC(=C(c2ccc(F)cc2)c2ccc(F)cc2)CC1	0.97	0.842
CC(=O)NC[C@H]1CN(c2ccc(N3CCOCC3)c(F)c2)C(=O)O1	1.02	1.18

SMILES	PER2::LUC luminescence (time after treatment 24 h)	PER2::LUC luminescence (time after treatment 30 h)
NC(=O)c1cc[n+](CC2=C(C(=O)[O-])N3C(=O)[C@@H](NC(=O)Cc4cccs4)[C@H]3SC2)cc1	1.12 and 0.389	0.83 and 0.69
Cc1nccn1CC1CCc2c(c3ccccc3n2C)C1=O (stereo not given)	0.971 and 0.984	1.03 and 0.914
CC(=O)NCCCCCCNC(C)=O	1.17	1.08
O=C1C(O)=C(O)C(=O)C(O)=C1O	0.984 and 0.949	0.948 and 0.843
CC(C)Cc1ccc([C@@H](C)C(=O)NS(C)(=O)=O)cc1	0.983 and 1.09	0.985 and 1.06
COc1ccc2c(c1)c(CC(=O)OCC(=O)O)c(C)n2C(=O)c1ccc(Cl)cc1	0.952	1.04
Cc1c2oc3c(C)ccc(C(=O)N[C@@H]4C(=O)N[C@H](C(C)C)C(=O)N5CCC[C@H]5C(=O)N(C)CC(=O)N(C)[C@@H](C(C)C)C(=O)O[C@@H]4C)c3nc-2c(C(=O)N[C@@H]2C(=O)N[C@H](C(C)C)C(=O)N3CCC[C@H]3C(=O)N(C)CC(=O)N(C)[C@@H](C(C)C)C(=O)O[C@@H]2C)c(N)c1=O	1.22	1.09
O=C(O)CCCC[C@@H]1CCSS1	1.03	1.21
COc1ccc(-c2nc3cc(F)ccc3s2)cc1OC	1.5	1.52
Cc1cccc(Nc2ccncc2S(=O)(=O)NC(=O)NC(C)C)c1	1.03 and 0.936	0.953 and 0.992
CCN1CCN(Cc2ccc(NC(=O)c3ccc(C)c(/C=C/c4cnc5[nH]ccc5c4OC)c3)cc2C(F)(F)F)CC1	0.349	0.394
Cn1nnc(-c2ccc(-c3ccc(N4C[C@H](CO)OC4=O)cc3F)cn2)n1	1.39 and 1.4	1.56 and 1.53
CC(=O)O[C@@H]1CC[C@@]2(C)C(C[C@@H](OC(C)=O)[C@@]3(C)C4=CC(=O)O[C@@H](c5ccoc5)[C@]4(C)CCC23)C1(C)C (stereo not given in full)	0.996	1.04
COc1cc2c(cc1OC)-c1c/c(=N\c3c(C)cc(C)cc3C)n(C)c(=O)n1CC2	0.0833	0.27
FC(F)(F)Oc1ccc(-c2ccc3nnc(C(F)(F)F)n3c2)cc1	1	0.974
O=C(c1ccc(F)cc1)N1CCC[C@H](c2nc(-c3ccc(F)cc3)no2)C1	0.994	0.927
C=C(C)[C@H]1COc2cc3oc(=O)ccc3cc2O1	1.09	1.13
CC(C)CCC[C@@H](C)[C@H]1CC[C@H]2[C@@H]3CC[C@H]4CC(=O)CC[C@]4(C)[C@H]3CC[C@]12C	1	0.915
O=C1N=C(O)NC1(c1ccccc1)c1ccccc1	1.29	1.01
